# The other results are listed elsewhere or left out. These are noisy estimates, calculated here from bound and input reads.
# Target: T1, Pho4 (S. cerevisiae) (UniProt P07270)
# T1 sequence: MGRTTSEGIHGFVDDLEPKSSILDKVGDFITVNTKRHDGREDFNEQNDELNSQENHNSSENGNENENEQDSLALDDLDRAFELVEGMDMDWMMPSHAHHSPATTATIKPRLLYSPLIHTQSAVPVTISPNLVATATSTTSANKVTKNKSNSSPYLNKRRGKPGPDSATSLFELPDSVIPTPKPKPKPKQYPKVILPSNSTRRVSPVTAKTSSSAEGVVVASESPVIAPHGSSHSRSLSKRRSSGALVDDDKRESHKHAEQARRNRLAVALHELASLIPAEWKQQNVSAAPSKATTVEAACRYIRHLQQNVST
# Assay: relative binding free energy (BET-seq); higher = weaker binding
# Conditions: reference: library average
row,Sequence,relative binding free energy [kcal/mol]
1,ATAGACACGTGAAGGG,0.3
2,GTGGTCACGTGACTAG,0.2
3,ATGAGCACGTGTCGTT,-0.11
4,TTGGCCACGTGGGTCT,-0.2
5,TGTATCACGTGTGCGA,0.21
6,CGTGGCACGTGAGATA,0.14
7,AGCTTCACGTGGATAG,0.3
8,TTGGCCACGTGTGTGC,0
9,AGGAGCACGTGAAGTT,-0.01
10,GGGGGCACGTGTTCTG,0.01
11,CGCTTCACGTGGTGGT,0.22
12,TAACGCACGTGTGAGT,-0.08
13,GGGGGCACGTGGGTAT,-0.13
14,GGTTTCACGTGTATCT,0.3
15,AGAGTCACGTGTTTGC,0.16
16,TGTGTCACGTGGCGGG,0
17,TTTCGCACGTGGGGGT,-0.21
18,GTAGGCACGTGGTGAG,-0.07
19,GGCTTCACGTGGTAGG,0.26
20,AAGTACACGTGTGGAT,0.13
21,AGTTTCACGTGGTCAT,0.2
22,CGGGTCACGTGAGGCT,0.22
23,GAGGTCACGTGTGGCT,0.23

row,Sequence,relative binding free energy [kcal/mol]
1,GGACGCACGTGAGGTT,0.16
2,AAGAGCACGTGTTGTT,-0.07
3,GTTTGCACGTGTAAAA,0.27
4,AATAGCACGTGCTGTG,-0.16
5,AATTTCACGTGGGTTC,0.2
6,ATGCGCACGTGATGTT,-0.01
7,GGCGTCACGTGACGGT,0.14
8,AAAATCACGTGTAGGT,0.28
9,AGTTACACGTGGTAAG,0.04
10,AAATGCACGTGTAGGA,0.07
11,TGTGTCACGTGGCAGA,-0.03
12,ATATGCACGTGTAAGT,0.11
13,TAGGGCACGTGAGATA,0.09
14,TTATGCACGTGGATAT,-0.06
15,TTGTTCACGTGACGGA,0.34
16,TTATTCACGTGTTAGT,0.37
17,TCCGTCACGTGTTGTA,0.04
18,GGCGGCACGTGGTTCT,0.01
19,TGCTGCACGTGTTGGC,0.02
20,ATATTCACGTGAGAAT,0.3
21,TAGTCCACGTGTGGCT,0.1
22,TTAGCCACGTGTAATT,0.08
23,CTTTGCACGTGTGATA,-0.01

row,Sequence,relative binding free energy [kcal/mol]
1,TTTTTCACGTGGGAGC,0.29
2,TTTCCCACGTGGGGGT,-0.15
3,TGTTGCACGTGTGCAC,0.01
4,ATGTTCACGTGATGTG,0.33
5,GATAACACGTGTGTGG,0.04
6,TTTTGCACGTGTCAAT,0.01
7,CTTTTCACGTGGAGAT,0.29
8,GTTATCACGTGGGGCC,0.18
9,TTAAGCACGTGAATAT,0.12
10,GTTGTCACGTGCATGG,0.01
11,GCTGGCACGTGTAATT,0.17
12,ACTGTCACGTGTCGGT,0.01
13,AATTGCACGTGTTTGA,0.06
14,CTGATCACGTGTATGT,0.03
15,GTATGCACGTGAAATG,0.27
16,ATGGGCACGTGCGAGT,-0.3
17,TACGGCACGTGTTGCT,-0.04
18,TATTTCACGTGTCTCG,0.34
19,TAAGGCACGTGGAAGT,-0.08
20,AGGTTCACGTGAAATG,0.44
21,GATGGCACGTGTGAGT,-0.09
22,GTTGTCACGTGCCGTG,0.19
23,GCGGTCACGTGGTAGA,0.11

row,Sequence,relative binding free energy [kcal/mol]
1,TTCGTCACGTGCGGAG,0.14
2,TGGATCACGTGCAGGT,0.1
3,AGTGACACGTGTTGGA,0.02
4,TTGGTCACGTGAAATA,0.35
5,AGAATCACGTGGCAGG,0.18
6,TATTTCACGTGGGTTG,0.23
7,GGGTGCACGTGGACGT,-0.02
8,GTGCTCACGTGTTAAG,0.24
9,CCTGGCACGTGGAGTA,-0.03
10,CGTGACACGTGAGGGG,0.18
11,TGTGGCACGTGTGTGA,-0.04
12,GGAATCACGTGGGCTT,0.08
13,TAGGACACGTGGGGAA,-0.15
14,TTAGTCACGTGTCCTT,0.22
15,AACGGCACGTGTATGG,-0.02
16,TATCACACGTGTGTGT,0.01
17,CAAATCACGTGGGTTG,-0.02
18,GTTTACACGTGATGAA,0.49
19,AGCATCACGTGGGATT,0.11
20,TGATACACGTGTAATG,0
21,GTCTGCACGTGTCAGG,0.18
22,ATGGTCACGTGTATCG,0.23
23,GGAGGCACGTGTAAGA,-0.04

row,Sequence,relative binding free energy [kcal/mol]
1,GATGGCACGTGTAAGT,0.15
2,GTGGACACGTGGTATA,0.08
3,ATGGTCACGTGAGGCT,0.26
4,ATATGCACGTGCAGTT,-0.09
5,AGTGGCACGTGTAGTA,-0.18
6,GTGGCCACGTGCGAGG,-0.03
7,GTTTACACGTGTTAGC,0.22
8,TTATTCACGTGTAGAT,0.47
9,TTCATCACGTGAAGGA,0.4
10,TGTGACACGTGGCCGG,-0.1
11,TGTGCCACGTGTCGTT,-0.03
12,ATGCGCACGTGAAGTT,0.13
13,TGTTGCACGTGTTCTT,0.09
14,CGAGGCACGTGTTTGT,-0.16
15,GCGTTCACGTGTGTTA,0.28
16,TGGGTCACGTGGCCCG,0.02
17,GTGGGCACGTGACCGT,0.07
18,GAAGTCACGTGGGTCA,0.03
19,TAGTACACGTGTACGG,0.09
20,GGTGACACGTGCATGT,0.15
21,CGGGACACGTGGTCGG,-0.13
22,TTAAACACGTGGAGAG,0.01
23,ACGGTCACGTGTCGTG,0.07

# From the BET-seq Pho4 binding data (Le et al. 2018)
